Experimental data as given in article PMC9681820, “A PDE10A inhibitor CPL500036 is a novel agent modulating striatal function devoid of most neuroleptic side-effects” (Frontiers in Pharmacology, 2022).

Tested on: Salmonella typhimurium (TA98, TA100, TA1535, and TA1537) and Escherichia coli (WP2 uvrA)
Test: Ames test, all strains (overall result)
Settings: 0.025 mg/ml–25 mg/ml, in the presence and absence of metabolizing enzymes

SMILES: Cc1ncc(C)n2nc(-c3ccn4cc(-c5ccccc5)nc4n3)nc12 [CPL500036, 7-[5,8-Dimethyl-(1,2,4)triazolo (1,5-a)pyrazin-2-yl]-2-phenylimidazo (1,2-a) pyrimidine]
- mutagenic activity: No mutagenic activity
